Experimental data taken from patent publication US20250144066A1, “Prevention and Treatment of Parasitic Infections” (priority 2017, published 2025).

Tested on: Human papillomavirus11

Compound: COc1c(C)c2c(c(O)c1C/C=C(\C)CCC(=O)O)C(=O)OC2 [EP1601, 6-(4-hydroxy-6-methoxy-7-methyl-3-oxo-1,3-dihydroisobenzofuran-5-yl)-4-methyl-hex-4-enoic acid]
- activity against HPV 11: active
